# PubChem BioAssay AID485344 (National Center for Advancing Translational Sciences (NCATS), 2010)
# Where “and” joins values, the source holds several entries; their conditions need not be identical. Equal values may be shown once. About 6,900 (2%) of roughly 340,000 compounds were called active. No stated cut-off is given here; in the data, active means inhibition above about 30%; inactive means below that, where a call was filed. The entries are a selection whose mix differs from that of the whole data set. The source gives no active or inactive call for entries shown without one.
# Biological target: D(2) dopamine receptor (Homo sapiens) (UniProt P14416)
# Assay: HTS Assay for Allosteric Antagonists of the Human D2 Dopamine Receptor: Primary Screen for Antagonists; further: 0% is about no effect
# Conditions: HEK293 TREx D2 cells, calcium flux, dopamine EC80; at 10 µM; stronger effect = higher value
# In short: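 Inhibition of EC80 dopamine-driven calcium flux, recorded kinetically, defines activity here; cells are a tetracycline-induced HEK293 T-REx line expressing force-coupled D2.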
# Chain of UniProt P14416 (P14416 whole entry, looked up): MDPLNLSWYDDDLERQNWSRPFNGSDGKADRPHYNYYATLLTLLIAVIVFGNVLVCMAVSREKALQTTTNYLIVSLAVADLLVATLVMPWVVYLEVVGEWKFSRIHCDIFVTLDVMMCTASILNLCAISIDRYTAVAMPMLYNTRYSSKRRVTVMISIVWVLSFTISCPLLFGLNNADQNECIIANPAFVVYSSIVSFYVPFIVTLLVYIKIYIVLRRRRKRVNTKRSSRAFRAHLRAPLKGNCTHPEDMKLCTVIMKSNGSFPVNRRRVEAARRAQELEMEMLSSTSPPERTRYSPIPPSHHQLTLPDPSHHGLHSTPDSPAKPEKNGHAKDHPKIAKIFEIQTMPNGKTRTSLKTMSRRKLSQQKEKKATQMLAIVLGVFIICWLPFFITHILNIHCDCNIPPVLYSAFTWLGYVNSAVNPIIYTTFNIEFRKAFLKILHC
row,SMILES,inhibition
1,CCSc1nc2c(c(=O)[nH]c(=O)n2C)n1CC(O)COc1ccc(Cl)cc1 (stereo not given),12.3%
2,COC(=O)CNS(=O)(=O)c1ccc(Cc2ccc(S(=O)(=O)NCC(=O)OC)cc2)cc1,active: 41.3%
3,Cc1nc(SCC(=O)Nc2ccc(Br)cc2)[nH]c(=O)c1Cc1ccccc1,-12%
4,Cc1ccc(C)c(S(=O)(=O)c2nnn3c2nc(Nc2ccc(F)c(Cl)c2)c2sccc23)c1,8.52%
5,Cc1c(Cl)cccc1NC(=O)Cn1nc(C)c2sc3ccccc3c2c1=O,21.9%
6,COc1ccccc1NC(=O)c1c(NC(=O)c2ccccc2F)sc2c1CCC2,-8.44%
7,COC(=O)c1c(NC(=O)c2ccccc2C(=O)O)sc2c1CCCC2,-15.9%
8,COc1ccc(Cn2ccc3nc(C)c(C(=O)Nc4ccc(C)c(F)c4)cc3c2=O)cc1,-0.224%
9,Cc1cc(N2CCC(C)CC2)nc2ccc(NC(=O)/C=C/c3cccc(Cl)c3)cc12,9.73%
10,CCOc1ccc(-c2c(C)nn3c(C)c(C(=O)NCc4ccc(C)o4)cnc23)cc1OCC,-2.94%
11,CC(C)c1ccc(Nc2c(-c3ccccc3O)nc3cnccn23)cc1,-14.8%
12,c1ccc(CCNCCOc2ccccc2)cc1,active: 48.1%
13,CSc1ccc(CNC(=O)c2cc3c(=O)n(Cc4ccco4)ccc3nc2C)cc1,-5.5%
14,CCc1ccccc1NC(=O)CSc1nnc(CC)c(CC)n1,1.38%
15,CC(=O)N1CCc2c(sc3c2c(=O)n(-c2ccc(C)cc2)c(=O)n3CC(=O)Nc2ccccc2)C1,-24.3%
16,O=C(NCCc1ccc(Cl)cc1)c1ccc(CS(=O)(=O)Cc2ccccc2F)o1,9.33%
17,Cn1c(Oc2ccc(F)cc2)nc2c1c(=O)n(Cc1ccccc1Cl)c(=O)n2C,-4.6%
18,CCCn1c(SCC(=O)c2ccc3c(c2)OCCO3)nc2c1c(=O)n(C)c(=O)n2C,active: 30.9%
19,CS(=O)(=O)N1CCc2cc(C(=O)N3CCN(c4ccc(F)cc4)CC3)ccc21,1.47%
20,Cc1ccc(-n2c(SCC(=O)Nc3cccc(Cl)c3)nc3n[nH]c(C)c3c2=N)cc1,6.85%
21,Cc1ccc(N2CC(NC(=O)c3ccc4c(c3)OCO4)CC2=O)cc1 (stereo not given),-1.78%
22,CC(=O)N1CCCc2ccc(NS(=O)(=O)c3ccc(F)cc3F)cc21,3.59%
23,Cc1ccccc1NC(=O)Cn1nc(-c2ccc(F)cc2)c2cnc3ccccc3c21,-6.65%
24,CN(C)CCN1C(=O)C(=O)/C(=C(/O)c2ccc(OCc3ccccc3)cc2)C1c1ccncc1 (stereo not given),active: 42%

row,SMILES,inhibition
1,COc1ccc(N2CCN(C(=O)c3nc(-c4ccc(Cl)cc4)n4c3CCCCC4)CC2)cc1,7.49%
2,Cc1ccc(Cl)cc1N1CCN(CCNC(=O)Nc2ccc(Cl)cc2)CC1,26.5%
3,COc1ccc(NC(=O)c2nnn(Cc3ccc(Br)cc3F)c2N)c(OC)c1,-6.17%
4,CC(C)c1cccc(C(C)C)c1NC(=O)c1ccccc1,active: 42.8%
5,O=C(C1CCN(S(=O)(=O)c2cccc3nonc23)CC1)N1CCN(c2ccccc2)CC1,6.53%
6,CCOc1ccc(CNC(=O)c2ccc(CS(=O)c3ccccc3)o2)cc1 (stereo not given),14.1%
7,CN1CCN(CCCN2c3ccccc3Sc3ccc(C(F)(F)F)cc32)CC1,active: 84.8% and active: 79.1%
8,Cc1cc(NC(=O)CSc2nc(-c3ccccc3F)nc3c2c(=O)n(C)c(=O)n3C)no1,12.6%
9,CCCSc1nc2sc3c(c2c(=O)n1-c1ccccc1)CCC(C)C3 (stereo not given),-12.1%
10,Cc1nc(-c2nc(-c3c(C(=O)NNC(=O)Nc4cccc(Cl)c4)noc3C)cs2)cs1,active: 49.3%
11,COC(=O)c1cccc(NC(=O)C2CCN(S(=O)(=O)Cc3ccccc3)CC2)c1C,8.15%
12,COc1cc2nc(SCc3ccc(Cl)cc3)n3nc(CCn4nc(C)cc4C)nc3c2cc1OC,1.17%
13,CC(=O)c1sc2c(c1C)c(=O)n(-c1ccc(Cl)cc1)c(=O)n2Cc1cc(=O)n2cc(Cl)ccc2n1,5.73%
14,Cc1nn(C(=O)c2ccc(Cl)cc2)c(C)c1Sc1ccc(Cl)cc1,-4.98%
15,O=C(CSc1ncc(CO)n1Cc1ccccc1)Nc1nc2ccccc2s1,10.5%
16,O=C(NC1CC(=O)N(c2ccc(F)cc2)C1)c1cccs1 (stereo not given),-6.85%
17,COc1ccc(CNC(=O)C2CCN(c3nc4ccccc4[nH]3)CC2)c(OC)c1,4.24%
18,COc1cc(CN(C(=O)COc2ccc(Br)cc2)c2ccccn2)cc(OC)c1OC,-0.411%
19,COc1cc(C(=O)Nc2nnc(S(=O)(=O)N(C)c3ccccc3)s2)cc(OC)c1OC,5.42%
20,Cc1ccc(-c2nc3n(n2)C(c2ccccc2C)C=C(c2ccc(Cl)cc2)N3)cc1 (stereo not given),-2.89%
21,COc1cc(C(=O)NCC(c2ccc(N(C)C)cc2)N2CCc3ccccc32)cc(OC)c1OC (stereo not given),4.7%
22,COc1ccccc1CNC(=O)CS(=O)(=O)c1cccc2nsnc12,10.6%
23,COc1ccc(CNC(=O)c2cc3c(=O)[nH]c4ccc(C)cc4c3s2)c(OC)c1,5.62%
24,COc1ccc(CCNC(=O)c2cc(-c3ccc(C)cc3)nc3n[nH]c(-c4ccccc4)c23)cc1OC,27.9%

row,SMILES,inhibition
1,COc1ccc(OC)c(NC(=O)CCn2cnnn2)c1,1.49%
2,Cc1ccc(C)c(N2CCN(C(=O)c3cc4ccc5cccnc5c4[nH]3)CC2)c1,-7.23%
3,Cc1cc(C)cc(NC(=O)CN2C(=O)CSc3ccc(S(=O)(=O)N(C)C)cc32)c1,3.09%
4,Cc1ccc(OCC(=O)Nc2ccc(Cl)c(-c3nc4ncccc4o3)c2)cc1C,-6.83%
5,CCOC(=O)c1c(C)oc2ncnc(Nc3ccc(F)cc3Cl)c12,-4.09%
6,COc1ccc(-c2nsc(NC(=O)COc3ccc(C)c(C)c3)n2)cc1,-4.74%
7,CCc1ccccc1NC(=O)C1(S(=O)(=O)c2ccc(Cl)cc2)CC1,21.2%
8,COc1cc(O)c(C(CCN2CCN(c3ccccc3)CC2)c2ccc3c(c2)OCO3)c(OC)c1 (stereo not given),active: 75.2%
9,CCCCCNC(=O)c1c[nH]c2ccc(S(=O)(=O)N3CCC(C)CC3)cc2c1=O,2.78%
10,CCC1CN(C(=O)NCc2ccc(C)cc2)c2cc(C)ccc2O1 (stereo not given),14.5%
11,Cc1nn(S(=O)(=O)c2ccc(C(C)C)cc2)c(C)c1S(=O)(=O)N1CCCCCC1,-5.31%
12,Cc1ccc(NC(=O)CSc2nc3ccccc3nc2Cc2ccccc2F)cc1F,10.2%
13,COc1ccccc1CNC(=O)CCn1c(=O)c2ccccc2n(CC(=O)Nc2ccc(C)cc2)c1=O,0.457%
14,Cc1cccc(CNC(=O)C2CCCN(S(=O)(=O)c3cn(C)cn3)C2)c1 (stereo not given),0.673%
15,CCCCCn1c(=O)[nH]c2cc(C(=O)Nc3cc(OC)cc(OC)c3)ccc2c1=O,-7.62%
16,Cc1ccc2oc(=O)c3cc(C(=O)N4CCN(c5ccccc5)CC4)sc3c2c1,20.8%
17,CN(C)S(=O)(=O)c1ccc2c(c1)N(CC(=O)NCc1ccccc1)C(=O)C1CCCCN21 (stereo not given),-9.51%
18,COC(=O)c1cc2oc3ccccc3c2n1Cc1cccc(C)c1,-12.3%
19,Cc1ccccc1CCNC(=O)c1ccc2c(c1)c(C)c(C)n2C,4.74%
20,Cc1ncc([N+](=O)[O-])n1Cc1ccccc1F,active: 31.5%
21,Cc1cccc(-c2nc(SCC(=O)Nc3cc(C)on3)c3c(=O)n(C)c(=O)n(C)c3n2)c1,6.78%
22,COCCCNC(=O)c1ccc2c(c1)N=C(C)c1c(C)ccc(C)c1S2,-8.54%
23,COc1ccc(N2CCN(c3ccc(-c4nc(-c5ccccc5C)no4)cc3[N+](=O)[O-])CC2)cc1,6.48%
24,Cc1nc2c(c(C)c1CCC(=O)Nc1cccc(C(F)(F)F)c1)c(=O)n(C)c(=O)n2C,-7.04%

row,SMILES,inhibition
1,CC1CCCN(S(=O)(=O)c2cc3c(cc2Cl)NC(=O)CO3)C1 (stereo not given),4.27%
2,CC(=O)Nc1ccc(S(=O)(=O)N2CCCN(S(=O)(=O)c3ccc(C)cc3)CC2)cc1,active: 30.7%
3,Cc1nnc(NC(=O)CSc2nccn2-c2cccc(Cl)c2)s1,-10.4%
4,COc1cc(OC)c(Nc2nc3ccc(C)cc3n3nnnc23)cc1Cl,-3.1%
5,COc1ccc(C(=O)Nc2ccccc2C(=O)OCc2cc(=O)n3c4c(sc3n2)CCCC4)cc1,-9.44%
6,COc1ccc(-c2cc(=O)n3[nH]cnc3n2)cc1,5.01%
7,COc1ccccc1CNc1nc2nc(C)c(Cl)c(C)n2n1,19.3%
8,COC(=O)c1c(NC(=O)c2cccc(OC)c2)sc2c1CCC(C(C)(C)C)C2 (stereo not given),9.72%
9,CCOc1ccccc1NC(=O)c1cn(C2CCCC2)c(=O)c2c1c1ccccc1n2C,-22.2%
10,COc1ccccc1NC(=O)C1=C(C)Nc2nc(SCc3ccccc3)nn2C1c1ccccn1 (stereo not given),9.81%
11,CCN(CC)S(=O)(=O)c1ccc2c(c1)N(CC(=O)NCCc1ccc(OC)c(OC)c1)C(=O)CO2,-26.4%
12,COc1cc2[nH]c(C(=O)NCCc3ccccc3)cc2c(OC)c1OC,active: 79.1%
13,COc1ccc(-n2c(=O)c3sc4ccccc4c3n(CC(=O)Nc3cccc(C)c3)c2=O)cc1,-18.8%
14,Cc1ccc(NC(=O)C(Cc2ccccc2)NS(=O)(=O)c2ccc3c(c2)oc(=O)n3C)c(Cl)c1 (stereo not given),-1.19%
15,COc1ccccc1NC(=O)c1cc(S(=O)(=O)N(C)C2CCCCC2)ccc1F,-19.7%
16,CC1=C(C(=O)Nc2ccccc2C)C(c2cccnc2)n2nc(SCc3ccccc3)nc2N1 (stereo not given),20.3%
17,COCCNC(=O)Cn1cc(S(=O)(=O)Cc2ccccc2Cl)c2ccccc21,9.66%
18,CCOC(=O)N1CCc2c(sc3c2c(=O)n(CCc2ccccc2)c(=O)n3Cc2cc(C)ccc2C)C1,-8.95%
19,O=C(Nc1cc(C(F)(F)F)ccc1Cl)C1CCN(c2nnc(-n3cccc3)s2)CC1,active: 62.3%
20,COc1ccc(OC)c(Nc2nc(-c3ccc(C)cc3)nc3ccccc23)c1,-3.46%
21,O=C(CC1N=C2c3ccccc3N=C(SCc3ccc(Cl)cc3)N2C1=O)NCCc1ccccc1 (stereo not given),15.2%
22,O=C(CSc1nnc(NC(=O)NC2CCCCC2)s1)Nc1ccccc1F,-7.65%
23,CCOC(=O)c1c(C)[nH]c(C)c1S(=O)(=O)NCC(=O)Nc1cccc(C(F)(F)F)c1,-12.7%
